According to PubChem BioAssay AID1508642 (National Center for Advancing Translational Sciences (NCATS), 2021):
About 200 (0.47%) of roughly 43,000 compounds were called active. About 12% were inconclusive and are not listed. Calls come from the whole dose curve; as a rule, active = well fitted cell-killing curve with a large enough effect; inconclusive = small, poorly fitted or top-dose-only effect, or effect the other way; inactive = flat fitted curve, though single readings scatter. Some of the results follow.

Experiment: Cell viability qHTS assay in S16 Pmp22-F2sN cells; note: nearly all actives have a fitted effect of over 65% in size
Conditions: S16 Pmp22-F2sN Schwann cells viability, CellTiter-Glo, 24 h; series mostly up to 57.5 µM; activity change, negative = cytotoxicity: at the top concentration
Procedure, shortened: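 S16 Pmp22-F2sN Schwann cells (500-1,000/well) in phenol-red-free DMEM with 10% FBS received 23 nL compound by pin tool for 24 h at 37 °C. Viability was then read as CellTiter-Glo luminescence after 15 min at room temperature.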
% is set by controls: 0 for no effect and ±100 for the full control effect; potency is the fitted concentration of half-maximal effect.

SMILES	activity change, negative = cytotoxicity	Potency
Cc1cc(C)c(Cn2c3ccccc3c3cnn(CC(=O)N4CCCCC4)c(=O)c32)c(C)c1	inactive: 6.46%	–
CN1C(=O)CC(=O)N(C)c2cc(S(=O)(=O)N(C)Cc3ccccc3)ccc21	inactive: -13.5%	–
Cc1ccccc1C(=O)Nc1ccccc1C(=O)OCc1cc(=O)n2ccsc2n1	inactive: 1.88%	–
COc1ccc2c(c1)c1c(c(=O)n(-c3ccc(OC)c(OC)c3)c(=O)n1Cc1ccccc1C)n2C	inactive: 0.625%	–
CC(=O)c1cccc(NS(=O)(=O)c2ccc3[nH]c4c(c3c2)CCCCCC4)c1	inactive: -25.6%	–
Cc1ccc(-n2ncc(C(=O)NCCN3CCN(C)CC3)c2C2CCN(C(=O)OC(C)(C)C)CC2)c(C)c1	inactive: -0.624%	–
COc1cccc(CNC(=O)CCn2c(=O)c3cccn3c3ccc(F)cc32)c1OC	inactive: -17%	–
COc1ccc(-n2nc(C(=O)N(C)c3cccc(C(F)(F)F)c3)c3c4ccccc4n(C)c3c2=O)cc1	inactive: 23.8%	–
CCCNC(=O)C1CCC(Cn2c(=O)c3sccc3n(Cc3cccc(OC)c3)c2=O)CC1 (stereo not drawn)	inactive: 1.38%	–
CCC(C(=O)N1CCN(c2cccc(C)c2C)CC1)n1nc(C)c2sc3ccccc3c2c1=O (stereo not drawn)	inactive: -0.394%	–
Cc1nc2nc(NC(=O)c3cccc(Cl)c3)[nH]n2c(=O)c1Cc1ccccc1	inactive: 1.56%	–
CCn1nnc2cc(C(=O)Nc3cccc(Cl)c3)ccc21	inactive: -4.55%	–
O=S(=O)(c1ccc(Br)cc1)c1nc(-c2ccco2)oc1SCc1ccccc1Cl	inactive: -27.1%	–
Cc1ccc(CCNC(=O)c2nn(C)c3c2CSc2ccccc2-3)cc1	inactive: -20.1%	–
CCCCOc1ccc(CNC(=O)CN2CCSc3ccccc32)cc1	inactive: 22.5%	–
CCOC(=O)c1c(S(=O)(=O)N2CCC(C(=O)Nc3ccccc3OC)CC2)c(C)n(CC)c1C	inactive: -3.51%	–
COc1ccc(CCNC(=O)Cn2cc(C(=O)c3ccccc3)c(=O)c3ccc(C)nc32)cc1OC	inactive: 3.37%	–
CCOC(=O)C1CCC(CN(Cc2ccccc2)S(=O)(=O)c2ccc(Cl)cc2)CC1 (stereo not drawn)	inactive: -2.45%	–
COc1ccc(CCNC(=O)CCc2c(C)nc3c(c(C)nn3-c3ccc(C)c(C)c3)c2C)c(OC)c1OC	inactive: 0.662%	–
CCN1C(C(=O)c2ccccc2)=C(OC(=O)c2ccc(OC)cc2)c2ccccc2S1(=O)=O	inactive: -3.17%	–
CCc1cccc(C)c1NC(=O)Cn1cc2c(n1)CCCC2	inactive: -4.81%	–
Cn1c(=O)c2c(-c3ccc(Br)cc3)n(CCc3ccccc3)cc2n(C)c1=O	inactive: -18.9%	–
Cc1ccc(NC(=O)c2oc3ccc(S(=O)(=O)N4CCCCC4)cc3c2C)cc1Cl	inactive: -9.89%	–
CCN(Cc1ccccc1)C(=O)CCc1c(C)nc2c(c(C)nn2-c2ccc(C)c(C)c2)c1C	inactive: 1.36%	–

SMILES	activity change, negative = cytotoxicity	Potency
Cc1ccc(-n2c(=O)c3c4c(sc3n(Cc3ccccc3C)c2=O)CCC4)cc1C	inactive: 3.63%	–
Cc1ccc(NC(=O)Nc2nnc(N(C)C3CCCCC3)s2)c(Cl)c1	inactive: 2.75%	–
Cc1cc(C)c(/C=C/c2onc(C)c2S(=O)(=O)N2CCC(C(=O)N(C)Cc3ccccc3)CC2)c(C)c1	inactive: -8.12%	–
O=C(Nc1ccc2c(c1)OCO2)c1cc(-c2ccc(Br)cc2)on1	inactive: -7.16%	–
Cc1ccccc1C(=O)Nc1nc2nc(-c3ccccc3)cc(=O)n2[nH]1	inactive: 4.28%	–
CCC(C)(C)NC(=O)C1CCN(S(=O)(=O)c2c(C)noc2/C=C/c2ccc(C)cc2)CC1	inactive: 18.4%	–
COc1ccc(NC(=O)C2=CC(c3ccc4c(c3)OCO4)=NS(=O)(=O)N2C)cc1	inactive: -1.32%	–
COc1ccc(C)cc1NC(=O)C1COc2ccccc2C1 (stereo not drawn)	inactive: -6.22%	–
Fc1ccc(-n2cc(-c3ccccc3)c3c(NCCc4ccccc4)ncnc32)cc1	inactive: -2.29%	–
CCc1ccc(NC(=O)Cn2c(=O)n(CCCCC(=O)NCCc3ccccc3)c(=O)c3ccccc32)cc1	inactive: -1.25%	–
COc1ccc(C2c3c(oc4ccc(C)cc4c3=O)C(=O)N2CCCN2CCOCC2)cc1OC (stereo not drawn)	inactive: 15%	–
CCOC(=O)c1c(NC(=O)COc2c(C)cc(Cl)cc2Cl)sc2c1CCCC2	inactive: -2.19%	–
COc1ccc(-c2noc(CC(=O)Nc3ccc(Br)cc3C)n2)cc1	inactive: 9.98%	–
COc1ccc(S(=O)(=O)NCC(c2ccc(N(C)C)cc2)N2CCCC2)cc1 (stereo not drawn)	inactive: 0.325%	–
Cc1ccc2c(=O)cc(C(=O)Nc3ccc(S(=O)(=O)N(C)Cc4ccccc4)cc3)oc2c1C	inactive: 3.31%	–
COc1cccc(C(=O)NCc2cn3ccccc3n2)c1	inactive: 16.7%	–
CCOc1ccc(OCC)c(NS(=O)(=O)c2c(C(=O)N3CCCCCC3)c(C)n(C)c2C)c1	inactive: 14.6%	–
CCOc1ccc(C(=O)c2cn(CC(=O)Nc3ccc(F)cc3)c3cc4c(cc3c2=O)OCCO4)cc1	inactive: 8.27%	–
O=C(CSc1nnc(-c2ccccc2)c(-c2ccccc2)n1)NC1CCCC1	inactive: 4.3%	–
O=C(NCCCO)C(=O)NCC(c1ccc2c(c1)OCO2)N1CCOCC1 (stereo not drawn)	inactive: 0.99%	–
O=C(CSc1nc2ccccc2nc1Cc1ccc(Cl)cc1)N1CCCc2ccccc21	inactive: -23.7%	–
CCOC(=O)c1c(C)c(C(=O)NCc2ccc(OC)cc2)c(C)n1CC	inactive: 3.07%	–
COc1ccc(NCc2cc3cc4c(cc3n(CC(=O)Nc3ccc(F)cc3)c2=O)OCCO4)cc1	inactive: 24%	–
COC(=O)C(C)Sc1nc2c(cnn2-c2ccc(F)cc2)c(=O)[nH]1 (stereo not drawn)	inactive: 19.2%	–

SMILES	activity change, negative = cytotoxicity	Potency
Cc1ccccc1N(C)S(=O)(=O)c1nnc(NC(=O)c2ccccc2F)s1	inactive: -2.08%	–
COc1ccc(-n2ccnc2SCC(=O)Nc2nnc(C)s2)cc1	inactive: -4.64%	–
CCOC(=O)Cn1c(=O)n(C2CCCCC2)c2nc(-c3ccc(CC)cc3)nc(C(N)=O)c21	inactive: 1.06%	–
Cc1nc2ccccc2n2c(-c3ccccc3)c3c(=O)n(C)c(=O)n(C)c3c12	inactive: 5.36%	–
Cc1cc(C)cc(NC(=O)Cn2c(=O)n(-c3cc(C)cc(C)c3)c(=O)c3oc4ccccc4c32)c1	inactive: 11.6%	–
Cn1nc(C(=O)NCc2cccc(Cl)c2)c2c1-c1ccccc1S(=O)(=O)C2	inactive: 6.5%	–
Cc1c(Cl)cccc1NC(=O)CCS(=O)(=O)c1ccc2c(c1)oc(=O)n2C	inactive: -29%	–
CN(c1ccccc1)S(=O)(=O)c1nnc(NC(=O)C2CCCCC2)s1	inactive: 7%	–
COc1cccc(CNC(=O)CCn2nc(C)c3c(C)n(-c4ccccc4)nc3c2=O)c1	inactive: -13.8%	–
COc1cccc(Cn2c(CNC(=O)CCc3ccccc3)nc3cccnc32)c1	inactive: 2.01%	–
Cc1ccc(NC(=O)C(=O)NCCc2sc(-c3ccc(Cl)cc3)nc2C)cc1C	inactive: 9.62%	–
Cc1ccc(S(=O)(=O)NCCc2csc(-c3ccc(Cl)cc3)n2)cc1	inactive: -10%	–
Cc1cc(C(F)F)n2nc(C(=O)Nc3cccc(Cl)c3C)nc2n1	inactive: 4.17%	–
Cc1ccccc1OCC(=O)Nc1ccccc1C(=O)OCc1cc(=O)n2ccsc2n1	inactive: 3.89%	–
Cc1nn(CCCC(=O)NCCc2ccc(Cl)cc2)c(=O)c2c1sc1ccccc12	inactive: 7.67%	–
N=c1c(C(=O)NCC2CCCO2)cc2c(=O)n3ccccc3nc2n1CCCO (stereo not drawn)	inactive: 9.39%	–
COc1ccc(F)cc1S(=O)(=O)NCC(c1ccco1)S(=O)(=O)c1ccc(F)cc1 (stereo not drawn)	–	active: 15.8 µM
CCOc1cc(C(=O)NCCc2csc3nc(-c4ccccc4F)nn23)cc(OCC)c1OCC	inactive: 4.72%	–
COc1ccc(Cn2c(C(=O)O)c(CNCCc3ccco3)c3ccc(C)cc32)cc1	inactive: -16.1%	–
CCOc1ccc(CNC(=O)C2CCN(S(=O)(=O)c3cn(C)cn3)CC2)cc1	inactive: -17.5%	–
O=C(CN1C(=O)CCn2nc(-c3ccccc3)cc21)NCc1ccc(F)cc1	inactive: 9.36%	–
Cn1ncc2c(NCc3ccccc3Cl)nc(NCCO)nc21	inactive: -0.562%	–
COc1ccc2c(c1)c1c(c(=O)n(-c3ccccc3)c(=O)n1CC(=O)NCCC1=CCCCC1)n2C	inactive: 1.7%	–
O=C(Nc1ccc(-n2nncc2-c2ccccc2)cc1)c1cccc(F)c1	inactive: -3.42%	–

SMILES	activity change, negative = cytotoxicity	Potency
CC1=C(C(=O)Nc2ccccc2)C(c2ccc(C(=O)O)cc2)n2ncnc2N1 (stereo not drawn)	inactive: 0.283%	–
CCOc1ccc(Nc2nc3c(S(=O)(=O)c4cccc(Cl)c4)nnn3c3ccsc23)cc1	inactive: 4.14%	–
CCc1ccc(OCC(=O)N(Cc2ccco2)Cc2ccccc2Cl)cc1	inactive: -1.92%	–
COc1ccccc1N1CCN(C(=O)c2cn(C)c3ccc(S(=O)(=O)N(C)C4CCCCC4)cc3c2=O)CC1	inactive: 6.04%	–
CCOc1ccc(NC(=O)c2cnn(-c3ccc(C)c(C)c3)c2C2CCN(C(=O)OC(C)(C)C)CC2)cc1	inactive: -2.7%	–
Cc1ccc(C(=O)NCC(c2ccc3c(c2)OCO3)N2CCN(C)CC2)cc1C (stereo not drawn)	inactive: 2.29%	–
Cc1ccc(NC(=O)CCCn2c(=O)c3cccn3c3ccccc32)c(C)c1	inactive: -19.1%	–
CCOC(=O)c1cnc2c(ccc3ccccc32)c1Nc1cccc(C(F)(F)F)c1	inactive: -7.65%	–
O=c1cc(-c2ccc(F)cc2)nc(SCc2nc(-c3ccccc3Cl)no2)[nH]1	inactive: 2.58%	–
CCOc1ccc(NC(=O)C(=O)NCCc2csc3nc(-c4ccccc4F)nn23)cc1	inactive: -3.35%	–
COC(=O)c1ccc(Cl)cc1NC(=O)N(C)CCc1c(C)nn(C)c1C	inactive: -5.94%	–
CCOc1ccc(NC(=O)Cn2cc(C(=O)c3ccc(C)c(C)c3)c(=O)c3cc(OC)c(OC)cc32)cc1	inactive: 0.531%	–
COc1cc(NC(=O)C(CC(C)C)NS(=O)(=O)c2ccc3c(c2)oc(=O)n3C)c(C(=O)O)cc1OC (stereo not drawn)	inactive: 15.4%	–
CCOC(=O)c1ccc(NC(=O)c2csc3c2CCCCC3)cc1	inactive: -6%	–
Cc1cccc(N2CCN(C(=O)c3cc4c(=O)n(C)c5ccccc5c4s3)CC2)c1C	inactive: -3.13%	–
COc1cc(C(=O)Nc2ccc(NC(=O)c3ccc(Br)cc3)cc2)cc(OC)c1OC	inactive: 8.91%	–
COc1ccc(CCn2c3c(c(=O)[nH]c2=O)C(NC(=O)c2ccccc2OC)(C(F)(F)F)C(=O)N3)cc1OC (stereo not drawn)	inactive: 0.179%	–
CCC1CCCCN1C(=O)CSc1nc2c([nH]c3ccccc32)c(=O)n1-c1cccc(OC)c1 (stereo not drawn)	inactive: -11.1%	–
Cc1oc(-c2cccc(Cl)c2)nc1CSc1nc2ncccc2[nH]1	inactive: -15.5%	–
Cc1nn(-c2nc(-c3ccc(F)cc3)cc(C(F)(F)F)n2)c(C)c1Cl	inactive: -10.4%	–
CC(=O)N1CCC2(CC1)OC(=O)C(C)=C2C(=O)NCc1ccc(Cl)cc1	inactive: 6.62%	–
